Results published in the supplement of paper PMC4967469.
By IC50 is meant the dose at which the fit gives 50% viability; where the fit passes the top or lowest dose, that dose stands as a limit. AUC sums up the same curve from the lowest dose to the 256-fold higher top dose; the more sensitive the line, the further below 1. For some of these results: A top dose marked as inferred was calculated from the reported fits. For some of these results: Where an entry number is given, a second screen of the drug exists; the two often differ.

What was measured:
Experiment in all cases: Viability of human cancer cell lines after 72 h of drug (GDSC screen)
CHIR-99021 = compound: Cc1cnc(-c2cnc(NCCNc3ccc(C#N)cn3)nc2-c2ccc(Cl)cc2Cl)[nH]1 [CHIR-99021]
Protocol: (§1)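 Human cancer cell lines in 384-well plates, medium with 10% serum, drug for 72 h over a 256-fold dose range (nine 2-fold or five 4-fold steps up to the top dose). Adherent lines were fixed and stained with the nucleic acid dye Syto60, suspension lines read with resazurin; signal relative to control wells, capped at 0 and 100%. One two-parameter sigmoid per drug and line, fitted in a mixed model over all curves with the slope shared within a line.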

MPS-1-IN-1 = compound: COc1cc(N2CCC(O)CC2)ccc1Nc1cc(Nc2ccccc2S(=O)(=O)C(C)C)c2cc[nH]c2n1 [MPS-1-IN-1]; settings: top dose 20 µM; top dose inferred
Protocol: as §1

KU-55933 = compound: O=c1cc(-c2cccc3c2Sc2ccccc2S3)oc(N2CCOCC2)c1 [KU-55933]; settings: top dose 10 µM
Protocol: as §1

(5Z)-7-Oxozeaenol = compound: COc1cc(O)c2c(c1)/C=C/C[C@H](O)[C@H](O)C(=O)/C=C\C[C@H](C)OC2=O [(5Z)-7-Oxozeaenol]; settings: top dose 10 µM; top dose inferred
Protocol: as §1

Thapsigargin = compound: C/C=C(/C)C(=O)O[C@H]1C(C)=C2[C@H]([C@@H]1OC(=O)CCCCCCC)[C@@](C)(OC(C)=O)C[C@H](OC(=O)CCC)[C@@]1(O)[C@H]2OC(=O)[C@@]1(C)O [Thapsigargin]; settings: top dose 0.512 µM; top dose inferred
Protocol: as §1

GSK269962A = compound: CCn1c(-c2nonc2N)nc2cnc(Oc3cccc(NC(=O)c4ccc(OCCN5CCOCC5)cc4)c3)cc21 [GSK269962A]; settings: top dose 5 µM; screen: GDSC drug entry 1192; top dose inferred
Protocol: as §1

Zibotentan = compound: COc1nc(C)cnc1NS(=O)(=O)c1cccnc1-c1ccc(-c2nnco2)cc1 [Zibotentan]; settings: top dose 20 µM; top dose inferred
Protocol: as §1

ABT-869 = compound: Cc1ccc(F)c(NC(=O)Nc2ccc(-c3cccc4[nH]nc(N)c34)cc2)c1 [ABT-869]; settings: top dose 1.024 µM; top dose inferred
Protocol: as §1

QL-X-138 = compound: C=CC(=O)Nc1cc(-n2c(=O)ccc3cnc4ccc(-c5cn[nH]c5)cc4c32)ccc1C [QL-X-138]; settings: top dose 10.24 µM; top dose inferred
Protocol: as §1

CP466722 = compound: COc1cc2ncnc(-n3nc(-c4ccccn4)nc3N)c2cc1OC [CP466722]; settings: top dose 16 µM; top dose inferred
Protocol: as §1

ABT-888 = compound: C[C@]1(c2nc3c(C(N)=O)cccc3[nH]2)CCCN1 [ABT-888]; settings: top dose 5 µM; top dose inferred
Protocol: as §1

[1] = top dose 2.56 µM, screen: GDSC drug entry 154
[2] = top dose 10 µM, screen: GDSC drug entry 1241, top dose inferred

| Cell Line | AUC (CHIR-99021; [1]) | IC50 (CHIR-99021; [1]) [µM] | AUC (CHIR-99021; [2]) | IC50 (CHIR-99021; [2]) [µM] | AUC (MPS-1-IN-1) | IC50 (MPS-1-IN-1) [µM] | AUC (KU-55933) | IC50 (KU-55933) [µM] | AUC ((5Z)-7-Oxozeaenol) | IC50 ((5Z)-7-Oxozeaenol) [µM] | AUC (Thapsigargin) | IC50 (Thapsigargin) [µM] | AUC (GSK269962A) | IC50 (GSK269962A) [µM] | AUC (Zibotentan) | IC50 (Zibotentan) [µM] | AUC (ABT-869) | IC50 (ABT-869) [µM] | AUC (QL-X-138) | IC50 (QL-X-138) [µM] | AUC (CP466722) | IC50 (CP466722) [µM] | AUC (ABT-888) | IC50 (ABT-888) [µM] |
| --- | --- | --- | --- | --- | --- | --- | --- | --- | --- | --- | --- | --- | --- | --- | --- | --- | --- | --- | --- | --- | --- | --- | --- | --- |
| OSC-19 (head and neck, adherent) | 0.987 | > 2.56 | 0.985 | > 10 | 0.91 | > 20 | 0.932 | > 10 | 0.652 | 1.68 | 0.149 | 0.00246 | 0.901 | > 5 | 0.986 | > 20 | 0.983 | > 1.02 | 0.878 | > 10.2 | 0.9 | > 16 | – | – |
| OVCAR-3 (ovary, adherent) | 0.983 | > 2.56 | 0.86 | 9.78 | 0.987 | > 20 | 0.98 | > 10 | 0.78 | 4.57 | 0.233 | 0.00488 | 0.94 | > 5 | 0.984 | > 20 | 0.986 | > 1.02 | 0.987 | > 10.2 | 0.942 | > 16 | – | – |
| PANC-10-05 (pancreas, adherent) | 0.932 | > 2.56 | 0.933 | > 10 | 0.903 | > 20 | 0.972 | > 10 | 0.701 | 2.74 | 0.269 | 0.00574 | 0.886 | > 5 | 0.979 | > 20 | 0.979 | > 1.02 | 0.619 | 1.5 | 0.791 | 9.54 | – | – |
| PC-3 (prostate, adherent) | 0.978 | > 2.56 | 0.946 | > 10 | 0.935 | > 20 | 0.917 | > 10 | 0.811 | 6.83 | 0.303 | 0.00782 | 0.87 | > 5 | 0.98 | > 20 | 0.979 | > 1.02 | 0.553 | 0.92 | 0.832 | 13.4 | – | – |
| RERF-GC-1B (stomach, adherent) | 0.98 | > 2.56 | 0.983 | > 10 | 0.763 | 7.99 | 0.984 | > 10 | 0.725 | 2.96 | 0.46 | 0.0246 | 0.819 | 3.29 | 0.977 | > 20 | 0.974 | > 1.02 | 0.766 | 4.21 | 0.913 | > 16 | – | – |
| SK-LU-1 (lung adenocarcinoma, adherent) | 0.98 | > 2.56 | 0.973 | > 10 | 0.954 | > 20 | 0.92 | > 10 | 0.717 | 3.08 | 0.165 | 0.00216 | 0.809 | 3.52 | 0.98 | > 20 | 0.969 | > 1.02 | 0.729 | 3.5 | 0.781 | 8.61 | – | – |
| SK-MEL-28 (melanoma, adherent) | 0.947 | > 2.56 | 0.97 | > 10 | 0.905 | > 20 | 0.876 | 9.65 | 0.175 | 0.0666 | 0.929 | > 0.512 | 0.987 | > 5 | 0.986 | > 20 | 0.988 | > 1.02 | 0.765 | 3.67 | 0.902 | > 16 | – | – |
| SW900 (lung squamous cell carcinoma, adherent) | 0.877 | > 2.56 | 0.83 | 7.75 | 0.944 | > 20 | 0.975 | > 10 | 0.714 | 2.8 | 0.483 | 0.0285 | 0.914 | > 5 | 0.981 | > 20 | 0.969 | > 1.02 | 0.898 | > 10.2 | 0.887 | > 16 | – | – |
| TCCSUP (bladder, adherent) | 0.982 | > 2.56 | 0.935 | > 10 | 0.981 | > 20 | 0.965 | > 10 | 0.649 | 1.73 | 0.532 | 0.0396 | 0.904 | > 5 | 0.982 | > 20 | 0.984 | > 1.02 | 0.804 | 5.98 | 0.923 | > 16 | – | – |
| U031 (kidney, adherent) | 0.975 | > 2.56 | 0.707 | 2.46 | 0.845 | 15.3 | 0.913 | > 10 | 0.496 | 0.608 | 0.553 | 0.0448 | 0.619 | 0.671 | 0.983 | > 20 | 0.98 | > 1.02 | 0.759 | 3.69 | 0.788 | 7.28 | – | – |
| U-2-OS (osteosarcoma, adherent) | 0.913 | > 2.56 | 0.943 | > 10 | – | – | – | – | 0.55 | 0.867 | 0.501 | 0.0321 | 0.879 | > 5 | 0.98 | > 20 | 0.971 | > 1.02 | 0.976 | > 10.2 | 0.952 | > 16 | 0.977 | > 5 |
| VM-CUB-1 (bladder, adherent) | 0.988 | > 2.56 | 0.967 | > 10 | 0.969 | > 20 | 0.894 | > 10 | 0.606 | 1.21 | 0.394 | 0.0166 | 0.747 | 1.55 | 0.989 | > 20 | 0.988 | > 1.02 | 0.95 | > 10.2 | 0.957 | > 16 | – | – |
